Laboratory results as given in PubChem BioAssay AID493208 (National Center for Advancing Translational Sciences (NCATS), 2011).
Screen size: about 44,000 compounds; about 340 (0.77%) were called active. Inconclusive results (about 5%) are left out. Calls follow the shape of the dose curve; as a rule, active = well fitted inhibition curve with a large enough effect; inconclusive = small, poorly fitted or top-dose-only effect; inactive = flat fitted curve, though single readings scatter. Some of the results follow.

Experiment: Acumen qHTS Assay for Inhibitors of the mTORC1 Signaling Pathway in MEF (Tsc2-/-, p53-/-) Cells: Sytravon; also: nearly all actives have a fitted effect of over 50% in size;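 as to activity change, negative = inhibition: plate controls were DMSO for no effect and rapamycin for full effect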
Settings: phospho-rpS6 immunofluorescence/PI, 24 h; series mostly up to 38.3 µM; activity change, negative = inhibition: at the top concentration
How it was run: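 Compounds act on Tsc2-/-, p53-/- fibroblasts carrying an empty vector for 24 h before fixation and dual staining for phospho-S6 and DNA (propidium iodide). Values are percentages of cells above a rapamycin-defined pS6/PI threshold.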
Potency is read from the fitted curve at half-maximal effect.

| SMILES | activity change, negative = inhibition | Potency |
| --- | --- | --- |
| CCOC(=O)c1noc2ncnc(Nc3cccc(OC)c3)c12 | inactive: -7.8% | – |
| O=C(COc1ccccc1Cl)Nc1ccc2nc(SCC(=O)N3CCCC3)sc2c1 | inactive: -5.64% | – |
| CCCn1c(=O)c2sccc2n2c(CCCC(=O)NCc3ccccc3)nnc12 | inactive: 1.65% | – |
| COc1cccc(NC(=O)CSc2nc(-c3ccccc3Cl)nc3c2Cc2c(CO)cnc(C)c2O3)c1 | inactive: -2.33% | – |
| COc1ccc(-c2cc(-c3ccccc3)nc(SCC(=O)Nc3ccccc3F)c2C#N)cc1 | inactive: -0.167% | – |
| CCOC(=O)C1=C(CS(=O)(=O)c2ccc(OC)c(Cl)c2)NC(=O)NC1c1cccc(OC)c1 (configuration not stated) | inactive: -0.922% | – |
| CCc1ccc(S(=O)(=O)c2cn(C)c3cc(N4CCCC4)c(F)cc3c2=O)cc1 | inactive: -1.21% | – |
| COC(=O)c1nnn(-c2ccc(Br)cc2)c1C(=O)OC | inactive: 3.17% | – |
| O=C(NCc1ccco1)c1ccc2c(c1)N(Cc1ccc(Cl)cc1)C(=O)c1ccccc1S2(=O)=O | inactive: -11.2% | – |
| CN(Cc1ccccc1)c1ccc(-c2nc(-c3ccncc3)no2)cc1[N+](=O)[O-] | inactive: -4.86% | – |
| Cc1cc(C)cc(C(=O)NCC(c2ccc(N(C)C)cc2)N2CCCC2)c1 (configuration not stated) | inactive: 7.33% | – |
| COc1cccc(NC(=O)C2CCCN(S(=O)(=O)c3cccc4nonc34)C2)c1 (configuration not stated) | inactive: -47.5% | – |
| Cc1cn2c(=O)c(S(=O)(=O)Nc3ccc(F)cc3F)c(C)nc2s1 | inactive: 0.726% | – |
| O=C(NCCC1=CCCCC1)C1CCN(C(=O)N2CCOc3ccc(Cl)cc32)CC1 | inactive: -2.1% | – |
| CCOC(=O)CC(NC(=O)CCc1c(C)nc2ncnn2c1C)c1ccc(C)cc1 (configuration not stated) | inactive: 0.423% | – |
| CCOc1ccc(C(=O)NCCc2csc(-c3cccc(F)c3)n2)cc1OCC | inactive: -6% | – |
| Oc1ccccc1Nc1nc2ccccc2n2nnnc12 | inactive: -4.28% | – |
| O=C(NCc1ccc(Cl)cc1)c1ccc(Cn2c(=O)c3cccn3c3cccnc32)cc1 | inactive: 5.06% | – |
| COc1ccc(S(=O)(=O)N2CCN(Cc3nc4ccc(C)cc4o3)CC2)cc1 | inactive: 0% | – |
| Cc1ccc(C)c(Nc2nnc(-c3ccc(C)c(S(=O)(=O)NCC4CCCO4)c3)c3ccccc23)c1 (configuration not stated) | inactive: -14.9% | – |
| O=C(Cn1c(=O)n(Cc2nc(-c3ccccc3)no2)c(=O)c2ccccc21)Nc1cccc(Cl)c1 | inactive: -5.17% | – |
| O=C1CCc2cc(S(=O)(=O)NC(C(=O)Nc3cccc(F)c3)c3ccccc3)ccc2N1 (configuration not stated) | inactive: 2.25% | – |
| COc1ccc(-c2c(C)c3ccc(O)c(CN4CCCC(C)C4)c3oc2=O)cc1OC (configuration not stated) | inactive: -20.2% | – |
| COCCCNC(=O)c1ccc2c(c1)N(Cc1ccccc1F)C(=O)c1ccccc1S2=O (configuration not stated) | inactive: 0.0606% | – |

| SMILES | activity change, negative = inhibition | Potency |
| --- | --- | --- |
| COc1ccc(-c2nnc(SCC(=O)Nc3ccc(C)c(C)c3)s2)cc1 | inactive: -1.79% | – |
| CCc1ccccc1NC(=O)CCCN1C(=O)CCn2nc(-c3cn(C)c4ccccc34)cc21 | inactive: -7.22% | – |
| COc1cccc(NC(=O)c2oc3ccccc3c2NC(=O)C2CCCCC2)c1 | inactive: -4.95% | – |
| COc1ccc(C(=O)/C=C/c2cn(CC(O)CN3CCc4ccccc43)c3ccccc23)cc1 (configuration not stated) | inactive: -7.68% | – |
| COC(=O)c1cc(NC(=O)c2cc3sccc3n2Cc2ccc(Cl)cc2)cc(C(=O)OC)c1 | inactive: -14.6% | – |
| O=C1NC(NS(=O)(=O)c2ccccc2)(C(F)(F)F)C(=O)N1c1ccc(F)cc1 (configuration not stated) | inactive: 14.1% | – |
| Cc1cc(N2CCC(C(=O)N(CC(C)C)CC(C)C)CC2)n2nc(C)c(-c3ccc(Cl)cc3)c2n1 | inactive: -5.99% | – |
| O=C(c1cnn(-c2ccc(F)cc2)c1-n1cccc1)N1CCN(c2ccc(Cl)cc2)CC1 | inactive: 1.09% | – |
| Fc1ccc(-n2ncc3c(Nc4cccc(Cl)c4)ncnc32)cc1 | inactive: 9.06% | – |
| COc1ccccc1C1C=C(c2ccc(C(C)C)cc2)Nc2nnnn21 (configuration not stated) | inactive: -3.39% | – |
| CSc1ncc(Cl)c(C(=O)N(Cc2ccc(C)cc2)C2CCS(=O)(=O)C2)n1 (configuration not stated) | inactive: -13% | – |
| Cc1cc(C)cc(OCc2cc(=O)n3c(-c4ccccc4)csc3n2)c1 | inactive: -11.6% | – |
| Cc1cccc(CNC(=O)c2ccc3c(c2)c(C)c(C)n3Cc2ccccc2)c1 | inactive: -12.9% | – |
| COc1ccccc1NC(=O)Cn1c(=O)c(CNc2ccccc2)cc2cc(OC)c(OC)cc21 | inactive: -3.11% | – |
| COc1cc(OC)cc(-c2nc3nc(C)c(CCC(=O)Nc4ccc(C)cc4C)c(C)n3n2)c1 | inactive: -0.278% | – |
| CCN(CC)S(=O)(=O)c1ccc(C(=O)Nc2nc3ccc(Cl)cc3s2)cc1 | inactive: -5.88% | – |
| O=C1CCc2cc(S(=O)(=O)NCc3ccccc3Cl)cc3c2N1CC3 | inactive: 0% | – |
| O=S(=O)(c1ccccc1)c1nnn2c1nc(NCc1ccc(Cl)cc1)c1sccc12 | inactive: -10.2% | – |
| COc1cccc(NC(=O)Cn2cc(S(=O)(=O)Cc3ccccc3F)c3ccccc32)c1 | inactive: -12.8% | – |
| O=C(CCn1ccc2cc(S(=O)(=O)N3CCCC3)ccc21)NCc1ccccc1F | inactive: 1.04% | – |
| CCn1nc(C)c2c(-c3ccccc3)cc(=O)n(C(C)C(=O)NCc3ccccc3OC)c21 (configuration not stated) | inactive: -12.3% | – |
| CC1CCCN(CCCNC(=O)c2ccc3c(c2)N(Cc2ccc(Cl)cc2)C(=O)c2ccccc2S3(=O)=O)C1 (configuration not stated) | – | active: 13.1 µM |
| Cc1ccc(C)c(NC(=O)Cn2cc(S(=O)(=O)Cc3cccc(Cl)c3)c3ccccc32)c1 | inactive: -9.3% | – |
